PubChem BioAssay AID1030 (National Center for Advancing Translational Sciences (NCATS), 2008)
The whole screen tested about 220,000 compounds, of which about 16,000 (7.3%) were called active. This list was built around the results that the source calls inconclusive (neither active nor inactive); the mix of calls is not that of the screen. The call rests on the fitted dose curve; in most records, active means well fitted inhibition curve with a large enough effect (not every such curve was filed as active); inconclusive means small, poorly fitted or top-dose-only effect, or another doubt; inactive means no such curve, though single readings can be large or run the other way. Potencies of inconclusive entries are left out as doubtful fits.

target: Aldehyde dehydrogenase 1A1 (Homo sapiens) (UniProt P00352); assay: qHTS Assay for Inhibitors of Aldehyde Dehydrogenase 1 (ALDH1A1); conditions: Purified ALDH1A1, NADH fluorescence, propionaldehyde substrate; series mostly up to 75.3 µM; activity, negative = inhibition: at the top concentration;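 on activity, negative = inhibition: plate controls were no enzyme wells and a reference inhibitor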
Chain of UniProt P00352 (P00352 whole entry, looked up): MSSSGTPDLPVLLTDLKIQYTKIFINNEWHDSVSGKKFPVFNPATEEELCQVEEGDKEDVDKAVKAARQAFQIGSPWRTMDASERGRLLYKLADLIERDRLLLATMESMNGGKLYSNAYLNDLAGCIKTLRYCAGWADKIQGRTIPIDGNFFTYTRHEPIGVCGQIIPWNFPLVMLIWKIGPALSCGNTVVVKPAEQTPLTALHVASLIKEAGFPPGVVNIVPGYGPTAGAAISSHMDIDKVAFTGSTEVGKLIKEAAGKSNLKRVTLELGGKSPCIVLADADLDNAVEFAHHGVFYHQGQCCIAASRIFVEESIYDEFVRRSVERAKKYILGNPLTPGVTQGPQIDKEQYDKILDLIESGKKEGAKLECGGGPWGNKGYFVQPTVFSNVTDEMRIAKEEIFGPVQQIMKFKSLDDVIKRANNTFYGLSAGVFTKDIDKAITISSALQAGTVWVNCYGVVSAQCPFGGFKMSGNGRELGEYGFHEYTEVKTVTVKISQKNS
Potency means the concentration at half of the fitted maximal effect; tags describe the fitted curve by direction and shape.

SMILES | activity, negative = inhibition | Potency
O=C(c1ccc(Cl)c([N+](=O)[O-])c1)N(c1ccccn1)c1ccccn1 | inactive: 0.238% | 
Cc1ccc(-c2c[n+](Cc3ccc(Cl)c(Cl)c3)c3n2CCC3)cc1 | inactive: -2.15% | 
CCN(CC)C(=O)CSc1ncccc1-c1nc2ccccc2[nH]1 |  | inconclusive [inhibitor, single point]
COC(=O)[C@@]1(Cc2ccccc2)[C@H]2c3cc(C(=O)N4CCCC4)n(Cc4c(CO)[nH]cc(C)c4=O)c3C[C@H]2CN1C(=O)c1ccccc1 | inactive: -2.48% | 
O=C(Nc1cc([N+](=O)[O-])ccc1Cl)c1ccc2c(c1)OCO2 | inactive: 4.26% | 
CCOC(=O)c1c(C)nc2sc3c(=O)[nH]cnc3c2c1-c1ccc(OC)cc1 |  | inconclusive [inhibitor, partial curve]
O=C(/C=C/c1ccc([N+](=O)[O-])cc1)NCc1ccccn1 | inactive: -7.76% | 
Cc1nnc(SCC(=O)c2ccc([N+](=O)[O-])cc2)s1 |  | inconclusive [inhibitor, single point]
COc1ccc(C)cc1NC(=O)C(=O)NNC(=O)c1ccco1 | inactive: 1.19% | 
S=c1[nH]c2ccc(Cl)cc2[nH]1 |  | active: 8.91 µM
O=C1CC(c2ccccc2)C(C(=O)Nc2ccccc2F)N1 (configuration not stated) | inactive: 21.9% | 
Cc1cc([N+](=O)[O-])ccc1NC(=O)Nc1ccc(F)cc1F |  | inconclusive [inhibitor, single point]
COc1ccc2c(c1)C(=O)CC(c1ccccc1F)O2 (configuration not stated) |  | inconclusive [inhibitor, partial curve]
CC(=O)c1ccc(S(=O)(=O)Nc2ccc(C(=O)NCC(c3ccccc3)N(C)C)cc2)cc1 (configuration not stated) |  | active: 2.82 µM
CCOC(=O)c1nc2sc3c(c2c(=O)n1C(C)C(=O)OCC)CCCC3 (configuration not stated) |  | inconclusive [inhibitor, partial curve]
CCCCC(c1nnnn1CCOC)N1CCN(C(=O)c2ccco2)CC1 (configuration not stated) |  | inconclusive [inhibitor, partial curve]
Cc1ccc(-c2nc3ccccc3[nH]2)cc1NC(=S)NC(=O)c1ccccc1Br |  | active: 28.2 µM
O=C(NCC1COc2ccccc2O1)c1ccc(NC(=O)C(c2ccccc2)c2ccccc2)cc1 (configuration not stated) |  | inconclusive [inhibitor, single point]
S=c1[nH]nc(Nc2ccccc2Cl)s1 |  | active: 1.41 µM
CN(C)NC(=O)c1cccc(Cl)c1 | inactive: 6.52% | 
COc1ccc(NS(=O)(=O)c2ccc(SC)cc2)cc1 |  | active: 0.158 µM
COCc1[nH]nc2c1C(c1ccc(OC)c(OC)c1)C(C#N)=C(N)O2 (configuration not stated) | inactive: 0.545% | 
COc1ccc(C2CC(=O)c3cnc(Nc4cc(C)cc(C)c4)nc3C2)cc1 (configuration not stated) |  | inconclusive [inhibitor, partial curve]
CC1(OC(=O)C2CCCC2)C(=O)C=C2C=C(c3ccsc3)N(Cc3ccco3)C=C2C1=O (configuration not stated) |  | active: 3.55 µM

SMILES | activity, negative = inhibition | Potency
CCOC(=O)C1(C(=O)OCC)CC1c1ccccc1 (configuration not stated) | inactive: 8.96% | 
C[N+]1(CCC(=O)c2ccccc2)CCCCC1 |  | active: 1.26 µM
CCOc1cc(/C=N/NC(N)=O)cc(Br)c1OCC(=O)Nc1cccc2ccccc12 | inactive: 5.52% | 
Cc1cccc(N2C(=O)CC(Sc3nc(C)cc(C)n3)C2=O)c1 (configuration not stated) |  | inconclusive [inhibitor, partial curve]
COCCCNc1ccc([N+](=O)[O-])cc1C(=O)Nc1cccc(C)n1 |  | inconclusive [inhibitor, single point]
CN1CCN(c2nc(-c3ccc(N(C)C)cc3)nc3ccccc23)CC1 |  | inconclusive [inhibitor, partial curve]
Cc1ccc2c(c1)C(O)(CC(=O)c1ccc3c(c1)OCO3)C(=O)N2 (configuration not stated) |  | inconclusive [inhibitor, single point]
COc1ccc(-c2nn(CC(=O)N3CCCCC3)c(=O)c3ccccc23)cc1 |  | inconclusive [inhibitor, single point]
CC(=O)C1=C(C)NC(SCC(N)=O)=C(C#N)C1c1cccnc1 (configuration not stated) |  | inconclusive [inhibitor, single point]
COc1ccc(-n2c(CCC(=O)O)ccc2-c2ccccc2)cc1 |  | inconclusive [inhibitor, single point]
CC(Sc1cccc[n+]1[O-])C(=O)Nc1ccc([N+](=O)[O-])cc1Cl (configuration not stated) |  | inconclusive [inhibitor, single point]
CC(=O)c1ccc(N2CCN(C(=S)NCc3ccco3)CC2)cc1 |  | inconclusive [inhibitor, single point]
OCCCNC(c1ccccc1)c1ccc(O)cc1 (configuration not stated) |  | inconclusive [inhibitor, single point]
CCOc1cccc(/C=C2\NC(=S)N(c3ccccc3)C2=O)c1O |  | active: 20 µM
COCCCNC(=O)c1cc2c(=O)n3cccc(C)c3nc2n(C(C)C)c1=N |  | inconclusive [inhibitor, partial curve]
Cc1ccc(OCCCn2ccnc2)cc1C | inactive: -8.76% | 
CC(=O)c1cccc(NC(=O)CSC(=O)c2ccccc2)c1 |  | inconclusive [inhibitor, single point]
CC(=O)c1cccc(S(=O)(=O)N2CCN(c3ccccc3F)CC2)c1 |  | inconclusive [inhibitor, partial curve, poor fit]
Cc1cccc(C(=O)O)c1C[C@H]1NCC[C@H]2c3ccccc3N[C@@H]12 |  | inconclusive [inhibitor, single point]
Cc1ccc(/C(O)=C2\C(=O)C(=O)N(CC(C)O)C2c2ccc(N(C)C)cc2)cc1 (configuration not stated) |  | inconclusive [inhibitor, single point]
CC(C)CN1C(=O)c2ccc(NC(=O)Cc3ccccc3)cc2C1=O |  | inconclusive [inhibitor, partial curve]
FC(F)(F)c1nc(-c2cccs2)ncc1-c1nnnn1-c1ccc(Cl)cc1 |  | inconclusive [inhibitor, partial curve]
O=C(CN1CCOCC1)Nc1ccc(S(=O)(=O)N2CCCCCC2)cc1 |  | inconclusive [inhibitor, single point]
